# The antibiotic and cytotoxicity screens of Wong et al. (2023)
# The list shows a part of the results.
# What was measured:
# HSkMC = human skeletal muscle cells; experiment: cytotoxicity call (relative viability < 0.9); conditions: 10 µM
# HepG2 = experiment: cytotoxicity call (relative viability < 0.9); conditions: 10 µM
# S. aureus RN4220 = experiment: growth inhibition call (relative growth <= 0.2); conditions: 50 µM
Structure (SMILES),cytotoxicity call (HSkMC),cytotoxicity call (HepG2),growth inhibition call (S. aureus RN4220)
COc1ccc(NC(=O)Nc2ccc3c(c2)C(=O)N([C@@H](C)CO)C[C@H](C)[C@@H](CN(C)CC2CCCCC2)OCCCC[C@H](C)O3)cc1,inactive,inactive,inactive
CC(C)(C)OC(=O)N1CC(=O)C1,inactive,inactive,inactive
C[C@@H]1CN([C@@H](C)CO)C(=O)c2cc(NC(=O)Nc3ccc(F)cc3)ccc2O[C@H]1CN(C)Cc1ccc(Oc2ccccc2)cc1,inactive,inactive,inactive
CN(C)CCCNC(=O)C1CCNCC1,inactive,inactive,inactive
C[C@H](NC(=O)C[C@H]1C[C@@H]2c3cc(NC(=O)Nc4ccc(C(F)(F)F)cc4)ccc3O[C@@H]2[C@H](CO)O1)c1ccccc1,inactive,inactive,inactive
CS(=O)(=O)NC[C@@]12COC[C@H]1CN(C(=O)COC1CCCC1)C2,inactive,inactive,inactive
C[C@@H]1CCCCO[C@@H](CN(C)CC2CC2)[C@H](C)CN([C@@H](C)CO)C(=O)c2cc(NC(=O)CCC(F)(F)F)ccc2O1,inactive,inactive,inactive
COC(=O)CN1C(=O)CSc2ncccc21,inactive,inactive,inactive
C[C@H](CO)N1C[C@H](C)[C@@H](CN(C)C(=O)Nc2ccnc(N3CCOCC3)c2)OCc2cn(nn2)CCCC1=O,inactive,inactive,inactive
CO[C@@H]1CN(C)C(=O)c2ccc(NC(=O)C3CC3)cc2OC[C@@H](C)N(C(=O)Cc2ccccn2)C[C@H]1C,inactive,inactive,inactive
COc1ccc(NC(=O)N(C)C[C@H]2Oc3cc(C#CCN(C)C)ccc3S(=O)(=O)N([C@@H](C)CO)C[C@H]2C)cc1,inactive,inactive,inactive
COc1ccccc1NC(=O)N(C)C[C@@H]1Oc2cc(Br)ccc2S(=O)(=O)N([C@@H](C)CO)C[C@@H]1C,inactive,inactive,inactive
C[C@H]1CN([C@@H](C)CO)S(=O)(=O)c2ccc(-c3cncnc3)cc2O[C@H]1CN(C)C(=O)Cc1cccnc1,inactive,inactive,inactive
C[C@@H]1CN([C@@H](C)CO)C(=O)c2cccc(NS(=O)(=O)c3ccccc3)c2O[C@H]1CN(C)S(=O)(=O)c1ccc(F)cc1,inactive,inactive,inactive
Fc1ccccc1-c1nc2ccn(Cc3ccc(-c4ccc(C(F)(F)F)cc4C(F)(F)F)nn3)cc-2n1,active,active,inactive
C[C@@H]1CN([C@@H](C)CO)C(=O)c2cc(NC(=O)c3ccccc3)ccc2O[C@@H](C)CCCCO[C@@H]1CN(C)S(=O)(=O)c1ccc(F)cc1,inactive,inactive,inactive
C[C@@H]1CCCCO[C@H](CN(C)Cc2ccc(C(F)(F)F)cc2)[C@@H](C)CN([C@H](C)CO)C(=O)c2cc(NC(=O)Nc3ccc(C(F)(F)F)cc3)ccc2O1,inactive,active,inactive
CC(=O)NC(CCC(N)=O)C(=O)O (stereo not given),inactive,inactive,inactive
C[C@@H]1CN([C@H](C)CO)C(=O)c2cc(NC(=O)CCCN(C)C)ccc2O[C@@H](C)CCCCO[C@@H]1CN(C)S(=O)(=O)c1cn(C)cn1,inactive,inactive,inactive
CCOC(=O)N1CCC(NS(=O)(=O)c2cccc(S(=O)(=O)[C@H]3CCS(=O)(=O)C3)c2)CC1,inactive,inactive,inactive
Cc1noc(C)c1NC(=O)N(C)C[C@H]1OCCCC[C@H](C)Oc2ccc(NS(=O)(=O)c3ccc(F)cc3)cc2C(=O)N([C@@H](C)CO)C[C@H]1C,inactive,inactive,inactive
C[C@@H]1CN([C@H](C)CO)C(=O)c2cc(NC(=O)Nc3ccc(F)cc3)ccc2O[C@@H](C)CCCCO[C@H]1CN(C)Cc1ccc2c(c1)OCO2,inactive,active,inactive
C[C@@H]1CN([C@@H](C)CO)C(=O)Cc2cc(NC(=O)C3CC3)ccc2O[C@H]1CN(C)S(=O)(=O)c1ccc(Cl)cc1,inactive,inactive,inactive
CC(C)NC(=O)N(C)C[C@@H]1Oc2c(NC(=O)C3CCOCC3)cccc2C(=O)N([C@@H](C)CO)C[C@H]1C,inactive,inactive,inactive
N[C@@H](CN1C=CC(=O)C(=O)C1)C(=O)O,inactive,inactive,inactive
C[C@H]1CN([C@@H](C)CO)C(=O)Cc2cc(NC(=O)CCN3CCOCC3)ccc2O[C@@H]1CN(C)S(=O)(=O)c1ccccc1,inactive,inactive,inactive
C[C@@H]1CCCCO[C@@H](CN(C)C(=O)CCC(F)(F)F)[C@H](C)CN([C@H](C)CO)C(=O)c2cc(NC(=O)c3ccccc3)ccc2O1,inactive,inactive,inactive
C[C@@H]1CN([C@@H](C)CO)C(=O)c2cc(NC(=O)Nc3ccccc3)ccc2O[C@@H](C)CCCCO[C@@H]1CN(C)C(=O)C1CCCCC1,inactive,inactive,inactive

Structure (SMILES),cytotoxicity call (HSkMC),cytotoxicity call (HepG2),growth inhibition call (S. aureus RN4220)
C[C@@H]1CN([C@H](C)CO)C(=O)c2cc(NC(=O)Nc3cccc4ccccc34)ccc2O[C@H]1CN(C)Cc1ccc(C(=O)O)cc1,inactive,inactive,inactive
C[C@@H]1CN([C@H](C)CO)C(=O)CCCn2nncc2CO[C@H]1CN(C)S(=O)(=O)c1ccc2c(c1)OCCCO2,inactive,inactive,inactive
NC(=O)c1cc2ccccc2nc1C(N)=O,inactive,inactive,inactive
CN(C)CC(=O)N1CCOC[C@@H]1c1nccc(N2CCOCC2)n1,inactive,inactive,inactive
Cc1noc(C)c1S(=O)(=O)Nc1ccc2c(c1)C(=O)N([C@H](C)CO)C[C@@H](C)[C@H](CN(C)Cc1ccc(Cl)c(Cl)c1)OCCCC[C@@H](C)O2,inactive,inactive,inactive
C[C@@H]1CN([C@@H](C)CO)C(=O)Cc2cc(NS(=O)(=O)c3ccccc3)ccc2O[C@H]1CN(C)Cc1ccc2c(c1)OCO2,inactive,inactive,inactive
O=C(C[C@@H]1C=C[C@@H](NC(=O)c2cccc(F)c2)[C@@H](CO)O1)NCCN1CCCC1,inactive,inactive,inactive
CCCS(=O)(=O)N1CCC[C@H](C(=O)NC)C1,inactive,inactive,inactive
C[C@@H]1CN([C@@H](C)CO)C(=O)c2cc(NC(=O)Nc3ccccc3)ccc2O[C@@H](C)CCCCO[C@H]1CN(C)C(=O)C1CCCCC1,inactive,inactive,inactive
CCS(=O)(=O)N1C[C@]2(CN(C2)C(=O)c2ccc3c(c2)OCO3)c2c(n(c3cc(ccc23)OC)C)[C@@H]1CO,inactive,inactive,inactive
COc1ccc(NC(=O)Nc2ccc3c(c2)C(=O)N([C@H](C)CO)C[C@H](C)[C@H](CN(C)S(=O)(=O)c2cccs2)OCCCC[C@@H](C)O3)cc1,inactive,inactive,inactive
C[C@@H]1CN([C@@H](C)CO)C(=O)c2cc(NC(=O)Cn3cnnn3)ccc2O[C@H]1CN(C)S(=O)(=O)c1ccc(Cl)cc1,inactive,inactive,inactive
C[C@@H]1CN([C@@H](C)CO)S(=O)(=O)c2ccc(C#CCC3CCCC3)cc2O[C@H]1CN(C)C(=O)CN(C)C,inactive,inactive,inactive
COc1ccc(NC(=O)N[C@H]2CC[C@@H](CCNC(=O)CN3CCOCC3)O[C@H]2CO)cc1,inactive,inactive,inactive
COc1ccc(S(=O)(=O)Nc2ccc3c(c2)[C@H]2C[C@@H](CC(=O)NCC4CC4)O[C@@H](CO)[C@H]2O3)cc1,inactive,inactive,inactive
C[C@@H]1CCCCO[C@@H](CN(C)C(=O)NC2CCCCC2)[C@@H](C)CN([C@H](C)CO)C(=O)c2cc(NC(=O)c3ccccc3)ccc2O1,inactive,inactive,inactive
COc1ccccc1CNC(=O)C[C@H]1C[C@@H]2c3cc(NC(=O)c4ccc5c(c4)OCO5)ccc3O[C@@H]2[C@H](CO)O1,inactive,inactive,inactive
CN(C)CC(=O)N[C@H]1CC[C@H](CCNC(=O)C2CC2)O[C@H]1CO,inactive,inactive,inactive
C[C@H]1CN([C@@H](C)CO)C(=O)c2cc(-c3cccnc3)cnc2O[C@H]1CN(C)C(=O)Nc1ccc2c(c1)OCO2,inactive,inactive,inactive
C[C@H]1CN([C@@H](C)CO)C(=O)Cc2cc(NC(=O)Cc3ccccc3)ccc2O[C@H]1CN(C)S(=O)(=O)c1ccccc1,inactive,inactive,inactive
C=CC[C@@H](CC(=O)N(CCO)Cc1ccccc1)C(=O)N[C@@H](COC(=O)[C@@H](CC=C)Cc1ccc(F)cc1)Cc1c[nH]c2ccccc12,active,inactive,inactive
C[C@@H]1CCCCO[C@H](CN(C)Cc2ccccc2)[C@@H](C)CN([C@H](C)CO)C(=O)c2cc(NS(=O)(=O)c3ccccc3)ccc2O1,inactive,inactive,inactive
CO[C@H]1C[C@@H](C[C@@H](C)[C@H]2CC(=O)[C@@H](C)/C=C(/C)[C@@H](O)[C@@H](OC)C(=O)[C@@H](C)C[C@@H](C)C=C/C=C\C=C(C)[C@H](OC)C[C@H]3CC[C@@H](C)[C@@](O)(O3)C(=O)C(=O)N3CCCC[C@@H]3C(=O)O2)CC[C@@H]1O,inactive,inactive,inactive
Cc1noc(C)c1NC(=O)Nc1cccc2c1O[C@H](CN(C)Cc1ccc(C(F)(F)F)cc1)[C@@H](C)CN([C@H](C)CO)C2=O,inactive,inactive,inactive
CO[C@@H]1CN(C)C(=O)c2ccc(NC(=O)C3CC3)cc2OC[C@H](C)N(C(=O)C2CCOCC2)C[C@H]1C,inactive,inactive,inactive
C[C@@H]1CN([C@H](C)CO)C(=O)c2cc(NC(=O)Nc3ccccc3)ccc2O[C@H]1CN(C)C(=O)Nc1ccc(C(F)(F)F)cc1,inactive,inactive,inactive
C[C@H](CO)N1C[C@H](C)[C@@H](CN(C)C(=O)Nc2ccc(C(F)(F)F)cc2)Oc2c(NS(C)(=O)=O)cccc2C1=O,inactive,inactive,inactive
